About 2,200 (0.71%) of roughly 310,000 compounds showed an effect of 50% or more. The effect is printed as a negative number. This is one part of the list.
Molecular target: human ether-à-go-go-related gene (hERG) potassium channel (human, UniProt Q12809)
Assay: primary screen, population patch clamp on CHO cells stably expressing hERG

Sequence of human ether-à-go-go-related gene (hERG) potassium channel (Q12809 whole entry, looked up): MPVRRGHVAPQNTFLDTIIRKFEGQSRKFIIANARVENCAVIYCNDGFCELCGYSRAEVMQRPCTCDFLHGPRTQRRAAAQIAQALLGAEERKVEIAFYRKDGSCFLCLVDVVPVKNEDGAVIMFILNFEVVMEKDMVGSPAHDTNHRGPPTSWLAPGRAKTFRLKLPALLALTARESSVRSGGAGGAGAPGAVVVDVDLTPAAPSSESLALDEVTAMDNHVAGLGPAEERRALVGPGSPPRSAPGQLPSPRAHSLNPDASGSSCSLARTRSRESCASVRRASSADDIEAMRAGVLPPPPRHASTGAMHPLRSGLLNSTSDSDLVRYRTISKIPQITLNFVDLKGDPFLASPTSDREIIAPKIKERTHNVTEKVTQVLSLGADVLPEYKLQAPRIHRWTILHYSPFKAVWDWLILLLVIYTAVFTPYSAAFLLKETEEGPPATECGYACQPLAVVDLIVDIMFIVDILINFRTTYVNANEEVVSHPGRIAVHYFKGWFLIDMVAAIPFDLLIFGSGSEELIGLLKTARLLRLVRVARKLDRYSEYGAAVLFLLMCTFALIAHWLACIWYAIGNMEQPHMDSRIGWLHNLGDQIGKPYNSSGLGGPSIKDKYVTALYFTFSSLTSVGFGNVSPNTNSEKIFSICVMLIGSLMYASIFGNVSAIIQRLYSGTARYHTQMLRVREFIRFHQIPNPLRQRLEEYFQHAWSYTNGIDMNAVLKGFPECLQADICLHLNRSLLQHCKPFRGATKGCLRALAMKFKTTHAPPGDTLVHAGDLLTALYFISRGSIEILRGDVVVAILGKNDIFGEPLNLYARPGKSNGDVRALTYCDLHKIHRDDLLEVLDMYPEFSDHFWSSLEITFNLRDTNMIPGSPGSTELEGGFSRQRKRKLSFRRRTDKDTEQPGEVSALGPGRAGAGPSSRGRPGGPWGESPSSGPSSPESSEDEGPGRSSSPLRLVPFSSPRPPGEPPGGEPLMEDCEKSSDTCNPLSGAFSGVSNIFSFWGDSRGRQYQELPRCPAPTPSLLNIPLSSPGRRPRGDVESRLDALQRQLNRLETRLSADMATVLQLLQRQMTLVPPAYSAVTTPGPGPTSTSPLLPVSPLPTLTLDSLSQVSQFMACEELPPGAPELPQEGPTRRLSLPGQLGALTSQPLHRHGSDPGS

Compound	hERG current change (%, negative = inhibition) at 1uM [%]
O=C(Cn1cnc2ccccc2c1=O)NCc1ccc2c(c1)OCO2	11.9
Cc1ccc(OCCCCN2CCC(C)CC2)c(Br)c1.O=C(O)C(=O)O	-31.1
N#Cc1ccc(-c2csc(NC(=O)C3CC3)n2)cc1	14.3
CC(=O)CN1Cc2ccccc2/C1=N\C(=O)Nc1ccccc1	13.9
CCOC(=O)C(=O)Nc1nnc(SCc2ccc(F)cc2)s1	8.83
COc1cccc(NC(=O)c2ccc(S(=O)(=O)N3CCCCC3)cc2)c1	7.32
CC(=O)Nc1ccc(S(=O)(=O)N2CCCC2C(=O)O)cc1 (stereo not shown)	6.63
COc1ccccc1CCNC(=O)C1CCC(=O)N(Cc2ccccc2OC)C1 (stereo not shown)	-2.39
O=C(CN1C2CCCC1CC(NC(=O)c1ccccc1)C2)Nc1ccccc1 (stereo not shown)	-18.4
Cc1noc(C)c1COc1ccc(C(=O)NCc2ccccn2)cc1	18.5
O=C(CSc1nnc(CNC(=O)c2ccc(F)cc2)o1)NCc1ccc2c(c1)OCO2	12.1
CC(=O)[C@@]12O[C@@H]1C[C@H]1[C@@H]3CC[C@H]4C[C@@H](O)CC[C@]4(C)[C@H]3CC[C@@]12C	4.74
COc1ccc(NC(=S)N2CCC(C(=O)N3CCCCCC3)CC2)cc1	15.3
O=C1NCCCC1C(=O)Nc1cccc(C(F)(F)F)c1 (stereo not shown)	-2.17
CCCCCNS(=O)(=O)c1cc(C)ccc1OC	14.6
COc1cccc(NC(=O)CCNS(=O)(=O)c2cccc3nsnc23)c1	5.59
COc1ccc([C@H]2CC(=O)C=C(c3cc4ccccc4c4ccccc34)C2)cc1	17
CN(C)CCCN(C(=O)c1ccco1)c1nc(-c2ccc(Cl)cc2)cs1.Cl	-70.8
COc1ccc(-c2cc(C(=O)OC3CCOC3=O)c3ccccc3n2)cc1OC (stereo not shown)	9.92
CCOC(=O)c1oc2ccccc2c1CSc1nnnn1-c1ccccc1	4.05
NC(=O)c1ccc(NCCc2ccccc2)c([N+](=O)[O-])c1	1.48
O=C(Nc1ccccc1N1CCOCC1)c1cc(F)cc(F)c1	5.99
O=C(Nc1nccs1)c1cc([N+](=O)[O-])ccc1Cl	13.9
O=C(NCC1CCCO1)c1cccc2ccccc12 (stereo not shown)	17.8
O=C1S/C(=C/c2ccc(N3CCOCC3)o2)C(=O)N1Cc1c(F)cccc1Cl	13
